Sequences with one replicate were seen in a single cluster, so their values are uncertain.
System: ATP
Assay: switch fluorescence ratio, 500 uM ATP over buffer (Cy3 cluster intensity, sum of 5 cycles each) (fold (ratio)); higher = stronger signal-on switching upon ATP binding; sequences stand for … in TCGTCGGCAGCGTCAGATGTGTATAAGAGACAGTTTTTTTTTTTTTTTTTTTTTTTTT…TC
Details: aptamer strand: ATP DNA aptamer (quencher-CACCTGGGGGAGTATTGCGGAGGAAGG + anchor), 100 nM annealed; ATP concentration: 500 uM; one replicate
Method in brief: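 Clusters carrying Cy3-labelled switching strands on a modified Illumina MiSeq flow-cell were annealed to 100 nM quencher-labelled ATP aptamer and imaged in selection buffer. They were imaged again after 15 min with 500 uM ATP at 22 °C, over five buffer/ATP cycles with NaOH stripping and re-annealing in between. For each cluster, the fluorescence ratio is the summed Cy3 intensity of the target cycles divided by that of the buffer cycles, averaged per switch-domain sequence. Clusters outside 100-1000 RFU were left out.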
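Further: ATP exposure 15 min at 22 °C before imaging.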

Sequence	switch fluorescence ratio
ACGGGAGGTT	1.09
TAATTAAGCC	0.965
GGGCAAGGCT	1.03
GGCTCCAAGC	0.988
CCCGGAATTG	1.38
GTTGTCCGAT	0.977
CTATTATCGC	1.06
GGAAGCCTTC	1.07
GGGTTGCAAT	1.06
CATTGGCG	0.917
TGGATTGTAA	0.949
AGGTTAATC	0.998
GCTTCCGAAC	3.41
ATGGAGGACA	1.02
ACGCGTGTAG	1.03
GAGGGAGAAC	1.02
GGATAACCAT	0.984
TTTCCGACTA	1.62
GTTTTGCATG	1
ATGCGATCTG	0.987
AGTTCGCATG	1.06
CAGCAAATCC	1.68
GATTGGGATG	0.968

Sequence	switch fluorescence ratio
CGTGCGTTG	0.984
GCCGCATTAG	4.56
AAGCTGTGGT	0.997
CGACTTCGT	1.04
GGGGCACTTA	1.02
GTTATTGGC	0.952
TTAGAAGCAG	0.971
TCGTCTATTA	1.04
GGCTCGTTCC	1.02
TCTTAGTCAT	0.999
AGTGAGTGT	1.01
AGGGTGGGCG	0.932
GACGTAAGAT	1.74
CAGGAGCCAG	1.06
CAAAAAGTAA	1.02
CTGAATATGG	0.984
ATGTGTCACA	0.973
GACGACCGAT	1.81
AGTAGTTTG	1
GAGAGTGTTG	0.968
ACCCGATGCC	1.16
CGTTGGTGCC	1.01
CCCGCACCAG	2.01

Sequence	switch fluorescence ratio
ACGTCATGTG	1.07
GCGGTCGCAG	1.01
CCTTAGGAAG	0.937
CTTATTGGG	1.02
AGTTATAACT	1.58
TCGCGAACC	1.09
GGTGTCGGGG	1.04
CCGGGATGAA	1.09
TGTGTTTCTA	0.97
TTTTAGATAA	1.06
CAGCTGCAAG	1.18
CGCTCTGGT	0.982
CAACTCATC	1.04
TAAACTACAA	1.02
GGACTGTAAA	1.07
GCTCAACGAG	1.01
GCACTCAACG	1.16
GCTAATGTGG	1.01
ATACGTCAAC	1.29
ATGAAACACG	0.988
AGCGGCC	1
GCGGGGAATA	0.982
GTTAAATCTC	1.03

Sequence	switch fluorescence ratio
TCGATTGGAC	1.06
ACAAGCGGTA	1.04
TAACGTATGA	1.1
AACGGAGGGC	0.965
TTATAGGTA	1
CTGGGAAAGT	0.994
TAGGCGCGTG	1.01
ATTTAACATC	1.05
ATTGATTTTG	1
TTAGTTGAGC	1.08
GAGACGATTT	1.04
ATGCCTAATT	0.951
ACCACTCCTG	1.07
ATACTCGGGC	1.01
GGTCTAGATG	1.02
TGCTGTCC	1.02
TGTGTGATGT	0.956
CACTGTGCAC	1.04
TCGGGTACG	1.01
CGAGACCGCG	0.987
TATCACCCAT	1.01
AGGTATTCTG	0.981
TCTCAGAGCT	1.04

Sequence	switch fluorescence ratio
GTGGGGTTAG	0.993
ATCCCTGTTC	0.968
TAGTAATAGT	1.08
AATTAGCAGC	1.01
AGCGCCGGG	1.04
GTATCGATGA	0.985
ATTTTGCGGC	0.954
GTCGTCGTCA	1.03
AAATGCTAGG	0.998
TGGTGGGACT	1.02
TTTCAGCGCG	0.986
AGTAATCCGG	1.01
TAACCTGTAT	1.15
TACTTTGACG	1.24
GCGCGACACC	1.31
CACATACCCG	1.26
TGTCATACGG	0.975
CAGCCGCCTG	1.16
CCCATTTAAC	1.04
TGAAAGTAGT	0.99
CTTAGGCAAT	2.47
CTTAGGGGGG	1
GGATACGCCC	1.34

Sequence	switch fluorescence ratio
GATGTTAGT	0.996
TATATAAAAC	0.941
TGCTGATTAA	1.03
GTCTGTATAC	1.66
GCATGAACTT	1.02
CAGACGACCC	1.68
ATCAAATCGT	0.974
TTTAGCTCTC	1.27
GTATGACGTG	0.99
TGCTGCTGTA	1
CGGAATCCTG	1.03
GGGTGCTGTA	0.957
AGCAACTTGT	0.992
GCCAACCTTT	0.999
CGACGTCGCA	1.05
GCAATATGG	1.85
GATTTAAAAC	1.01
ACATTGAGTT	0.955
GGTTGGCGGC	1
TTTCACGGCC	1.1
TGTCAGAAGG	1.01
AGCACTACAA	1.11
GTTTAGTTTC	0.982

Sequence	switch fluorescence ratio
CGTTTCTGAG	0.927
TTCAAAGTCC	1.03
TTAGGGCCCC	1.06
GACTAAGATC	1.03
ATGCAAAACA	1.03
TGTGCGCAAG	1.86
AGACTCAAG	0.987
TATCGTTGCT	0.944
ATGAAACCCT	1.18
GGGTTGCTTC	0.953
TGATTCCTG	0.998
ATAACGCGAA	1.16
CTTACGAAAA	1.07
TATTGTAAGG	0.993
CCGGATTTGA	0.996
TGTGACCGTA	1.01
AAGAGAGAGT	1.04
AAGAGGCTTA	1.02
GCCGTTAAAG	0.974
GCCTTGGTTA	1.01
